Results reported in PubChem BioAssay AID2101 (National Center for Advancing Translational Sciences (NCATS), 2009).
Values joined by “and” are separate entries in the source; they are usually repeats but may differ in a detail not shown here. Equal values may be shown once. Among all 330,000 compounds or so, about 300 (0.091%) were called active. About 4% were inconclusive and are not listed. The call rests on the fitted dose curve; in most records, active means well fitted inhibition curve with a large enough effect; inconclusive means small, poorly fitted or top-dose-only effect, or effect the other way, or another doubt; inactive means no such curve, though single readings can be large or run the other way. This is a selection; strong and weak results do not stand in their true shares. More than one record can exist for a structure, and the calls need not agree.

These molecules were tested against Lysosomal acid glucosylceramidase (Homo sapiens) (UniProt P04062) (assay: qHTS Assay for Inhibitors and Activators of N370S glucocerebrosidase as a Potential Chaperone Treatment of Gaucher Disease). Details: N370S GC spleen homogenate, 4MU-glucoside fluorescence; series mostly up to 59.4 µM; activity change, negative = inhibition: at the top concentration.
Potency means the concentration at half of the fitted maximal effect.
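Wherever activity change, negative = inhibition is given: 0% = full enzyme activity and -100% = no enzyme basal.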

Compound	activity change, negative = inhibition	Potency
COc1ccc2c(c1OC)C(=O)O[C@H]2[C@@H]1c2cc3c(cc2CCN1C)OCO3	inactive: -8.75%	
CNCCC(Oc1ccc(C(F)(F)F)cc1)c1ccccc1 (stereo not drawn)		inactive
C[C@]12CC[C@H]3[C@@H](CCC4C[C@H](O)CC[C@@]43C)[C@@H]1CC[C@@H]2O (stereo partly drawn)	inactive: 28.8%	
O=C(O)c1cc[c]([Hg][Cl])cc1	inactive: -19.2%	
CCCCC/C=C\C/C=C\C/C=C\CCCCCCC(=O)NCCO		inactive
CC(C)[C@]1(NC(=O)[C@@H]2C=C3c4cccc5[nH]cc(c45)C[C@H]3N(C)C2)O[C@@]2(O)C3CCCN3C(=O)[C@H](Cc3ccccc3)N2C1=O (stereo partly drawn)	inactive: -6.8%	
C[C@@H](Cc1cccc(C(F)(F)F)c1)NCCCc1ccccc1	inactive: -18.2%	
COC(=O)[C@H]1C[C@@H]1[C@H](NP(=O)(c1ccccc1)c1ccccc1)c1ccccc1		inactive
Clc1ccc(COC(Cn2ccnc2)c2ccc(Cl)cc2Cl)c(Cl)c1 (stereo not drawn)		inactive
CN1CCN(C2=Nc3cc(Cl)ccc3Nc3ccccc32)CC1		inactive
c1ccc2sc(C3(N4CCCCC4)CCCCC3)cc2c1		inactive
N#C/C(=C\c1ccc(O)c(O)c1)C(N)=S		inactive
C=C[C@@H]1C[C@@]1(C)[C@@H](NP(=O)(c1ccccc1)c1ccccc1)c1ccccc1	inactive: 21.5%	
COc1cc(-c2ccc(=O)[nH]n2)ccc1OC(F)F		inactive
CC(C)[C@@]1(NC(=O)[C@@H]2C[C@H]3c4cccc5[nH]cc(c45)C[C@@H]3N(C)C2)O[C@]2(O)[C@H]3CCCN3C(=O)[C@H](Cc3ccccc3)N2C1=O	inactive: 11.1% [at 21.6 µM]	
O=S1(=O)N(CCN2CC=C(c3c[nH]c4cc(F)ccc34)CC2)c2cccc3c2N1CCC3	inactive: -23%	
C[C@@H](COc1ccccc1)N(CCCl)Cc1ccccc1	inactive: -0.146% [at 21.6 µM]	
COC(=O)[C@]1(C)C[C@H]1[C@H](NP(=O)(c1ccccc1)c1ccccc1)c1ccccc1	inactive: 21.4%	
NC(Cc1ccc(N(CCCl)CCCl)cc1)C(=O)O (stereo not drawn)		inactive
O=c1c(O)c(-c2ccc(O)c(O)c2)oc2cc(O)cc(O)c12		inactive
Clc1ccc(CO[C@@H](Cn2ccnc2)c2ccc(Cl)cc2Cl)cc1	inactive: -5.47% [at 21.6 µM]	
C[N+]1(C)[C@@H]2CC(OC(=O)[C@H](CO)c3ccccc3)C[C@H]1[C@@H]1O[C@@H]12 (stereo partly drawn)	inactive: -15.7%	
S=C=Nc1cccc(C2(N3CCCCC3)CCCCC2)c1	inactive: -9.02%	
O=c1c2ccccc2[se]n1-c1ccccc1		inactive and active: 22.4 µM
CC(C)NC(C)Cc1ccc(I)cc1 (stereo not drawn)	inactive: -11.2%	
N#Cc1nn(-c2c(Cl)cc(C(F)(F)F)cc2Cl)c(N)c1S(=O)C(F)(F)F (stereo not drawn)		inactive
O=C(O)c1ccccc1Nc1cccc(C(F)(F)F)c1		inactive

Compound	activity change, negative = inhibition	Potency
CNc1ccc2oc(C[C@H]3O[C@]4(CC[C@H]3C)O[C@H]([C@H](C)C(=O)c3ccc[nH]3)[C@H](C)C[C@H]4C)nc2c1C(=O)O	inactive: 21.9%	
CN(C)[C@@H]1C(=O)C(C(N)=O)=C(O)[C@@]2(O)C(=O)C3=C(O)c4c(O)cccc4[C@@](C)(O)C3C[C@@H]12 (stereo partly drawn)	inactive: -6.06%	
CS(=O)(=O)Nc1ccc(Cc2noc(-c3ccc4[nH]cc(CCN)c4c3)n2)cc1	inactive: -15.4%	
N#CC(C#N)=Cc1ccc(O)c(O)c1		inactive
COc1cc(CNC(=O)CCCC/C=C/C(C)C)ccc1O		inactive
CC(C)(O)[C@H]1O[C@H]2CC[C@@]3(C)[C@@](O)(CC[C@H]4Cc5c([nH]c6ccccc56)[C@@]43C)C2=CC1=O	inactive: -20.2%	
CCCCC/C=C\C/C=C\C/C=C\C/C=C\CCCCCC(=O)NCCO		inactive
COc1cc2c(c(OC)c1OC)-c1ccc(OC)c(=O)cc1C(NC(C)=O)CC2 (stereo not drawn)		inactive
CN(C)[C@@H]1C(=O)C(C(N)=O)=C(O)[C@@]2(O)C(=O)C3=C(O)c4c(O)cccc4[C@@](C)(O)C3CC12 (stereo partly drawn)	inactive: -6.87%	
c1ccc(-c2ccc(C(c3ccccc3)n3ccnc3)cc2)cc1 (stereo not drawn)	inactive: -27.6%	
C[C@H](CCC(=O)O)[C@H]1CC[C@@H]2[C@@H]3[C@@H](O)C[C@H]4C[C@@H](O)CC[C@@]4(C)[C@H]3CC[C@@]21C	inactive: 7.88% [at 21.6 µM]	
COc1ccc2c(c1OC)C(=O)O[C@H]2[C@H]1c2cc3c(cc2CCN1C)OCO3	inactive: -18.7% [at 21.6 µM]	
CC(=O)O[C@@]12CO[C@@H]1C[C@H](O)[C@@]1(C)C(=O)[C@H](O)C3=C(C)[C@@H](OC(=O)[C@H](O)[C@@H](NC(=O)c4ccccc4)c4ccccc4)C[C@@](O)([C@@H](OC(=O)c4ccccc4)C12)C3(C)C (stereo partly drawn)	inactive: -19.4%	
COc1ccc2c(c1OC)C(=O)O[C@@H]2[C@H]1c2cc3c(cc2CCN1C)OCO3	inactive: -18.8%	
CCCCCCC(C)(C)c1ccc([C@@H]2C[C@H](O)CC[C@H]2CCCO)c(O)c1	inactive: -28.7%	
CN1C2CCC1CC(OC(c1ccccc1)c1ccc(Cl)cc1)C2 (stereo not drawn)		inactive
C[C@@H]1CCc2cc(F)cc3c(=O)c(C(=O)O)cn1c23	inactive: 15.6% [at 21.6 µM]	
CC(C)(O)C1O[C@H]2CC[C@@]3(C)[C@@](O)(CC[C@H]4Cc5c([nH]c6ccccc56)[C@@]43C)C2=CC1=O (stereo partly drawn)		inactive
CC(CCC(=O)O)C1CCC2C3C(O)C[C@@H]4CC(O)CC[C@@]4(C)C3CC[C@@]12C (stereo partly drawn)	inactive: -11%	
CCCCCCCCCCCCCCCC[N+](C)(C)C	inactive: 2.24%	
COc1ccc2c(c1OC)C(=O)OC2C1c2cc3c(cc2CCN1C)OCO3 (stereo not drawn)		inactive
CCCCCCCCCOc1ccc2[nH]cc(CCN)c2c1		inactive
CN(C)[C@H]1C(=O)C(C(N)=O)=C(O)[C@]2(O)C(=O)C3=C(O)c4c(O)cccc4[C@@](C)(O)[C@H]3C[C@@H]12	inactive: -5.17% [at 21.6 µM]	
CC1CCc2cc(F)cc3c(=O)c(C(=O)O)cn1c23 (stereo not drawn)	inactive: 3.02%	
CC[C@@H](CO)NC(=O)[C@@H]1C=C2c3cccc4c3c(cn4C)C[C@H]2N(C)C1		inactive
COc1cc2c(c(OC)c1OC)-c1ccc(OC)c(=O)cc1[C@@H](NC(C)=O)CC2		inactive
